Assay results from US20110117017A1, “PEPTIDES WITH PROPERTIES OF AN […] FOR THE ALPHA 1A […] RECEPTOR AND USES THEREOF” (priority 2006, published 2011).

Target: T1, alpha1a receptor (Homo sapiens, UniProt P35348)
T1 construct: made in house; host or cells: Pichia pastoris (membranes)
T1 sequence (P35348 1-466): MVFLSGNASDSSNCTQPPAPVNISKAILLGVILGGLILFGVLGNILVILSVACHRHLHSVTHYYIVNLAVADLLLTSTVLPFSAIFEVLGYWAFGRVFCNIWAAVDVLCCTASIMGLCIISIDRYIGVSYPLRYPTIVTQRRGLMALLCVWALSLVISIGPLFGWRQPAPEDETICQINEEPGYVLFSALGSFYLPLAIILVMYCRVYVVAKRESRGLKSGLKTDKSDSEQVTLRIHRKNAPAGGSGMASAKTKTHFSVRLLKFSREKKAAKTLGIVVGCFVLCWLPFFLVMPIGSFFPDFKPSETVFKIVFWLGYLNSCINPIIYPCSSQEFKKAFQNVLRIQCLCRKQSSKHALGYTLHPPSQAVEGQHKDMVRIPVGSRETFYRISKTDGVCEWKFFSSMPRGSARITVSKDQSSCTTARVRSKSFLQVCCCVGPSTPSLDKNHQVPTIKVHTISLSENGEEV
Test: displacement of 3H-prazosin binding to the alpha1a receptor (yeast membranes)
Details: reflects an allosteric modulation

In the case of `CC[C@H](C)[C@@H]1NC(=O)CNC(=O)[C@H](Cc2ccccc2)NC(=O)[C@H]([C@@H](C)CC)NC(=O)[C@H](CO)NC(=O)[C@H](CCCCN)NC(=O)[C@H](CO)NC(=O)[C@H]([C@@H](C)O)NC(=O)[C@H](C(C)C)NC(=O)[C@@H](NC(=O)[C@@H](NC(=O)[C@@H](N)CC(C)C)[C@@H](C)O)CSSC[C@@H]2NC(=O)[C@H](CC(C)C)NC(=O)[C@H](CC(N)=O)NC(=O)[C@H](CCC(N)=O)NC(=O)CNC(=O)[C@H](CC(=O)O)NC(=O)[C@@H]3CCCN3C(=O)[C@H](CSSC[C@@H](C(=O)N[C@@H](C)C(=O)N[C@@H](C)C(=O)N[C@H](C(=O)N[C@H]3CSSC[C@@H](C(=O)N[C@H]4CSSC[C@@H](C(=O)N[C@@H](CC(N)=O)C(=O)N[C@@H](CCC(=O)O)C(=O)O)NC(=O)[C@H](CCCCN)NC(=O)[C@H](CC(=O)O)NC(=O)[C@H]([C@@H](C)O)NC(=O)[C@H](CCCCN)NC4=O)NC(=O)[C@H](Cc4c[nH]cn4)NC(=O)[C@H]([C@@H](C)CC)NC(=O)[C@H](CO)NC(=O)[C@H](CC(=O)O)NC(=O)[C@H](Cc4ccc(O)cc4)NC(=O)[C@H](CC(N)=O)NC(=O)[C@H](CCC(=O)O)NC(=O)[C@@H]4CCCN4C(=O)[C@H]([C@@H](C)CC)NC(=O)[C@@H]4CCCN4C3=O)[C@@H](C)O)NC(=O)CNC(=O)[C@H](CCCNC(=N)N)NC(=O)[C@H]([C@@H](C)O)NC(=O)[C@H](CO)NC(=O)[C@H](CC(=O)O)NC(=O)[C@H](Cc3ccc(O)cc3)NC(=O)[C@H]([C@@H](C)CC)NC(=O)[C@H](CCCCN)NC(=O)[C@@H]3CCCN3C(=O)[C@H](C(C)C)NC(=O)[C@H](C(C)C)NC(=O)[C@H](Cc3ccc(O)cc3)NC(=O)[C@H](Cc3c[nH]cn3)NC(=O)[C@H](CCCNC(=N)N)NC(=O)[C@H](CCCNC(=N)N)NC(=O)[C@H](CCCCN)NC(=O)[C@H](Cc3ccccc3)NC2=O)NC(=O)[C@H](CC(=O)O)NC(=O)[C@H](CCC(=O)O)NC(=O)[C@H]([C@@H](C)O)NC(=O)[C@H]([C@@H](C)O)NC1=O` [AdTx1], the “displacement of prazosin binding to the alpha1a adrenergic receptor (completeness)” value is reported as “incomplete”.
